# According to PubChem BioAssay AID1476 (National Center for Advancing Translational Sciences (NCATS), 2009):
# “And” between values parts separate entries of the source, which are not always exact repeats. Identical values can stand only once. In all, about 200,000 compounds went through this assay and about 4,500 (2.2%) were called active. Inconclusive results, whose numbers are uncertain, are shown with a selection of clear calls. Calls come from the whole dose curve; as a rule, active = well fitted inhibition curve with a large enough effect; inconclusive = small, poorly fitted or top-dose-only effect, or effect the other way; inactive = flat fitted curve, though single readings scatter. A potency beside an inconclusive call is a rough fit, not a confirmed value.
# Biological target: Cruzipain (Trypanosoma cruzi) (UniProt P25779)
# Chain of UniProt P25779 (P25779 whole entry, looked up): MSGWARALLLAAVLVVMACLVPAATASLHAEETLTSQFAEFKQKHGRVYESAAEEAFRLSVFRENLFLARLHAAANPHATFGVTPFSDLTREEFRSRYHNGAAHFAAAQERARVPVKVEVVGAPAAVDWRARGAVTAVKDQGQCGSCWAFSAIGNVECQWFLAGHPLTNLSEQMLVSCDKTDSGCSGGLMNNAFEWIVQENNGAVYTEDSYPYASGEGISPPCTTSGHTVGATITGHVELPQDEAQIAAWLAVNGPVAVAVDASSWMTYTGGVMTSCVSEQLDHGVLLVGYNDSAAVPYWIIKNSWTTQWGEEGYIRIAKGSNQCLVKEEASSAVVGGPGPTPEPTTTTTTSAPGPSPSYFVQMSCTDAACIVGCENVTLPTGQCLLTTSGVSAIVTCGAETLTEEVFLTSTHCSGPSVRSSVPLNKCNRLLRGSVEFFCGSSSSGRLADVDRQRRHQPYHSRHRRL
# Assay: qHTS Assay for Promiscuous and Specific Inhibitors of Cruzain (without detergent); note: nearly all actives have a fitted effect of over 40% in size;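 for max response, negative = inhibition: plate controls were enzyme without inhibitor for no effect and buffer without enzyme for full effect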
# Settings: purified cruzain, Z-FR-AMC fluorescence, no detergent
# Procedure, shortened: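 Purified cruzain at 1.5 nM, pre-incubated 15 min with compound at room temperature in 100 mM sodium acetate pH 5.5, 5 mM DTT, 0.00005% Triton X-100. Reaction started with 2 uM Z-FR-AMC; AMC fluorescence increase over 60 s gives rate.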
# Potency is the fitted concentration of half-maximal effect; tags give direction and shape of the fitted curve.
Compound,"max response, negative = inhibition",Potency
CN(C)c1ccc(N=Nc2ccccc2)cc1,inactive: -12.6%,
CCOC(=O)CC(Nc1nc(N2CCOCC2)nc(N2CCOCC2)n1)c1ccccc1Cl (stereo not drawn),,"inconclusive: 31.6 µM [activator, partial curve]"
Cc1ccnc(Sc2ncccc2[N+](=O)[O-])n1,inactive: 2.54%,
COc1ccc(-c2nc(C)c(CCNC(=O)C(=O)Nc3cccc(F)c3)s2)cc1OC,inactive: -13.6%,
CCOC(=O)C1=C(C)C2C3C(=O)N(c4ccccc4C)C(=O)C3C1(C)C1C(=O)N(c3ccccc3C)C(=O)C21 (stereo not drawn),,"inconclusive: 25.1 µM [activator, partial curve]"
C[C@]12C[C@@](C)(C=C1/C=C/c1ccc(F)cc1)C(=O)C[C@H]2c1ccc(F)cc1,inactive: 21.3%,
Oc1c(I)cc(I)c2cccnc12,,"inconclusive: 6.31 µM [inhibitor, single point] and inconclusive: 39.8 µM [inhibitor, single point]"
CCc1nnc(NC(=O)CN2CCN(c3nc(-c4ccccc4)cs3)CC2)s1,,"inconclusive: 31.6 µM [activator, single point]"
COc1ccccc1-n1cnnc1SCC(=O)Nc1cc(C(C)(C)C)nn1-c1ccccc1,,"inconclusive: 31.6 µM [activator, single point]"
CC1=C(C(=O)OCc2ccccc2)C(c2ccccn2)c2c(n(C)c(=O)n(C)c2=O)N1 (stereo not drawn),inactive: -5.62%,
CCSc1nnc(NC(=O)C2CC2c2ccccc2)s1 (stereo not drawn),,"inconclusive: 31.6 µM [inhibitor, single point]"
Cc1ccc(C(C(=O)NC2CCCCC2)N(C(=O)Cc2c[nH]c3ccccc23)c2ccccc2C)o1 (stereo not drawn),,"inconclusive: 10 µM [inhibitor, single point]"
COc1cc(NC(=S)NC(=O)c2ccc(C(C)(C)C)cc2)ccc1NC(=O)c1cccs1,,active: 12.6 µM
COC(=O)[C@@]1(Cc2ccc(F)cc2)[C@H]2c3cc(C(=O)N4CCCC4)n(CCSCCO)c3C[C@H]2CN1C(=O)c1ccccc1,,"inconclusive: 10 µM [activator, partial curve]"
CCOC(=O)N1CCC(N2Cc3cccc(C(=O)N4CCN(C5CCCCC5)CC4)c3C2=O)CC1,inactive: -5.3%,
COc1ccc(C2Nc3ccccc3C(=O)N2c2ccc(C)cc2)cc1Cn1nnc2ccccc21 (stereo not drawn),,"inconclusive: 39.8 µM [inhibitor, single point]"
CCc1ccc(NCc2cc3cc4c(cc3n(CC(=O)Nc3ccc(Cl)cc3)c2=O)OCO4)cc1,,active: 15.8 µM
COc1ccccc1CCNC(=O)c1ccc2c(c1)c(C)c(C)n2C,,"inconclusive: 39.8 µM [inhibitor, single point]"
